Reference: the supplement of paper PMC6451100
The list shows a part of the results. Read counts after selection give these values, which scatter widely.

Each sequence was assayed against T1, Drosophila AGO2 (FLAG-tagged, S2-R+ lysate) (UniProt Q9VUQ5) (assay: AGO2 loading enrichment factor (IP read count / input read count, not library-size normalised) (ratio); higher = more efficient loading into AGO2). Conditions: randomized region: 5' 5N of miR-317 loop.
T1 sequence: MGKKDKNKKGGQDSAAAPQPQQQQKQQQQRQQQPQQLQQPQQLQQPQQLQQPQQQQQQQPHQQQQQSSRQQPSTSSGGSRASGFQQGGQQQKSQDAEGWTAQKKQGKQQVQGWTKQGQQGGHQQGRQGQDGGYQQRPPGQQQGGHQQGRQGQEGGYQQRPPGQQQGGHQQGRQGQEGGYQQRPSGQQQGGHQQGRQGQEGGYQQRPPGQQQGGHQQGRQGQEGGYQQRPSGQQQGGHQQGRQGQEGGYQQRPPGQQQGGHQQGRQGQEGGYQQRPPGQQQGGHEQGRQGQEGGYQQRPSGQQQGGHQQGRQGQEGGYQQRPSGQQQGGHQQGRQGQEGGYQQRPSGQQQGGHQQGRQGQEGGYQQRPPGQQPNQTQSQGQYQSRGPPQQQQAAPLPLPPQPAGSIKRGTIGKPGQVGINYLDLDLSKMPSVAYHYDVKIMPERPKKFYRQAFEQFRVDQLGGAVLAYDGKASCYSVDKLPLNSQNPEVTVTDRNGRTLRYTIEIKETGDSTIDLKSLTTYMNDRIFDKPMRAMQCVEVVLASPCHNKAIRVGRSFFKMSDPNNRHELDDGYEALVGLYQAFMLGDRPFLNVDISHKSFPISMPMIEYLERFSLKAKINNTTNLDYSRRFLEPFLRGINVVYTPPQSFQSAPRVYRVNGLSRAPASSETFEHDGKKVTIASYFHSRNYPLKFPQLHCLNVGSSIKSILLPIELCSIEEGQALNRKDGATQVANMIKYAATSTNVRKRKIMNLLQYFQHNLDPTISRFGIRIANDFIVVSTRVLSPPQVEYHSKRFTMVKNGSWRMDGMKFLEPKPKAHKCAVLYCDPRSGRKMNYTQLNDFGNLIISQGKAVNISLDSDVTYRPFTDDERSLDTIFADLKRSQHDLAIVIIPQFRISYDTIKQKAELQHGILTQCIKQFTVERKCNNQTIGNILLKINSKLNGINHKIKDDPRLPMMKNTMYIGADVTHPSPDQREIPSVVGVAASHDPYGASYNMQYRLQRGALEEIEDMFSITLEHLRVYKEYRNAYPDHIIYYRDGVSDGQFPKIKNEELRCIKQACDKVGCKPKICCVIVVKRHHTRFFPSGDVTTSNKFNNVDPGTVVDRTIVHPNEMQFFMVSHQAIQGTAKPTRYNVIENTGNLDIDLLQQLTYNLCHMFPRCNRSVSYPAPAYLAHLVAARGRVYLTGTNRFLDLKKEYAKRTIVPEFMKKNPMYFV
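Note: Per-sequence enrichment computed with FASTAptamer, counting only reads that carry the expected constant 3′ region.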

| Sequence | AGO2 loading enrichment factor |
| --- | --- |
| CGGGTTGAAATGCAAGCAAG | 1.44 |
| TTTAATGAAATGCAAGCAAG | 0.499 |
| CTACTTGAAATGCAAGCAAG | 0.467 |
| CCCCTTGAAATGCAAGCAAG | 0.353 |
| GTTAATGAAATGCAAGCAAG | 0.387 |
| GTCTTTGAAATGCAAGCAAG | 0.365 |
| CCCCATGAAATGCAAGCAAG | 0.298 |
| CGACATGAAATGCAAGCAAG | 0.368 |
| AGAGTTGAAATGCAAGCAAG | 0.391 |
| CGGCTTGAAATGCAAGCAAG | 0.481 |
| ACGAGTGAAATGCAAGCAAG | 0.444 |
| TCCGCTGAAATGCAAGCAAG | 0.175 |
| CGAGCTGAAATGCAAGCAAG | 0.103 |
| GGTCTTGAAATGCAAGCAAG | 0.0925 |
| ACGGATGAAATGCAAGCAAG | 0.889 |
| GAATATGAAATGCAAGCAAG | 0.455 |
| TCTCGTGAAATGCAAGCAAG | 0.281 |
| GCGCTTGAAATGCAAGCAAG | 0.159 |
| ATGTGTGAAATGCAAGCAAG | 0.381 |
| ACCTGTGAAATGCAAGCAAG | 0.135 |
| TGGCTTGAAATGCAAGCAAG | 0.426 |
| ACCATTGAAATGCAAGCAAG | 0.491 |
| ACGCTTGAAATGCAAGCAAG | 0.418 |
| AGCATTGAAATGCAAGCAAG | 0.133 |
| TACCGTGAAATGCAAGCAAG | 0.391 |

| Sequence | AGO2 loading enrichment factor |
| --- | --- |
| GCGACTGAAATGCAAGCAAG | 0.348 |
| CGAAATGAAATGCAAGCAAG | 0.456 |
| GTATCTGAAATGCAAGCAAG | 0.507 |
| TACCCTGAAATGCAAGCAAG | 0.275 |
| TGACTTGAAATGCAAGCAAG | 0.11 |
| ACATTTGAAATGCAAGCAAG | 0.369 |
| GTAGGTGAAATGCAAGCAAG | 1.28 |
| GAAGTTGAAATGCAAGCAAG | 0.415 |
| GGTTCTGAAATGCAAGCAAG | 0.603 |
| TTAGCTGAAATGCAAGCAAG | 0.249 |
| CTGTTTGAAATGCAAGCAAG | 0.483 |
| GTGGTTGAAATGCAAGCAAG | 1.08 |
| CGAATTGAAATGCAAGCAAG | 0.444 |
| AGGGGTGAAATGCAAGCAAG | 8.13 |
| CACTGTGAAATGCAAGCAAG | 0.222 |
| GGCTATGAAATGCAAGCAAG | 0.4 |
| CTACCTGAAATGCAAGCAAG | 0.375 |
| TGTCATGAAATGCAAGCAAG | 0.392 |
| GGATCTGAAATGCAAGCAAG | 0.734 |
| CTTCTTGAAATGCAAGCAAG | 0.4 |
| CACAATGAAATGCAAGCAAG | 0.499 |
| CGGTCTGAAATGCAAGCAAG | 0.716 |
| GCCTCTGAAATGCAAGCAAG | 0.0935 |
| TTACGTGAAATGCAAGCAAG | 0.724 |
| ATGACTGAAATGCAAGCAAG | 0.527 |

| Sequence | AGO2 loading enrichment factor |
| --- | --- |
| GTCGGTGAAATGCAAGCAAG | 2.19 |
| GTGGGTGAAATGCAAGCAAG | 5.72 |
| AAGTGTGAAATGCAAGCAAG | 0.339 |
| CCGGGTGAAATGCAAGCAAG | 1.91 |
| ACTATTGAAATGCAAGCAAG | 0.359 |
| TGTTGTGAAATGCAAGCAAG | 0.849 |
| GTCTCTGAAATGCAAGCAAG | 0.677 |
| TTCCGTGAAATGCAAGCAAG | 0.74 |
| CAGAATGAAATGCAAGCAAG | 0.36 |
| GTAGATGAAATGCAAGCAAG | 0.555 |
| CGATATGAAATGCAAGCAAG | 0.5 |
| CTCCGTGAAATGCAAGCAAG | 0.786 |
| GACCGTGAAATGCAAGCAAG | 0.54 |
| GAGGGTGAAATGCAAGCAAG | 4.74 |
| GCGGCTGAAATGCAAGCAAG | 0.0765 |
| GGGCTTGAAATGCAAGCAAG | 0.582 |
| CAACATGAAATGCAAGCAAG | 0.425 |
| CCCATTGAAATGCAAGCAAG | 0.333 |
| CCATCTGAAATGCAAGCAAG | 0.674 |
| CCTATTGAAATGCAAGCAAG | 0.521 |
| TCATGTGAAATGCAAGCAAG | 0.444 |
| ACCGTTGAAATGCAAGCAAG | 0.371 |
| CGTGCTGAAATGCAAGCAAG | 0.298 |
| CGACTTGAAATGCAAGCAAG | 0.154 |
| CGCCCTGAAATGCAAGCAAG | 0.275 |

| Sequence | AGO2 loading enrichment factor |
| --- | --- |
| GTGTGTGAAATGCAAGCAAG | 0.401 |
| TCATTTGAAATGCAAGCAAG | 0.524 |
| ATGGATGAAATGCAAGCAAG | 0.778 |
| ATTCGTGAAATGCAAGCAAG | 0.341 |
| TTTTGTGAAATGCAAGCAAG | 0.674 |
| CCAATTGAAATGCAAGCAAG | 0.33 |
| TTCCTTGAAATGCAAGCAAG | 0.72 |
| CACGATGAAATGCAAGCAAG | 0.331 |
| CGATGTGAAATGCAAGCAAG | 0.316 |
| GGTCCTGAAATGCAAGCAAG | 1.28 |
| TTGACTGAAATGCAAGCAAG | 0.645 |
| ACGTATGAAATGCAAGCAAG | 0.5 |
| GAGTGTGAAATGCAAGCAAG | 0.365 |
| TTTGGTGAAATGCAAGCAAG | 0.614 |
| AAAGTTGAAATGCAAGCAAG | 0.301 |
| AAATGTGAAATGCAAGCAAG | 0.249 |
| GAGGATGAAATGCAAGCAAG | 2.37 |
| CGGCATGAAATGCAAGCAAG | 0.276 |
| GCAGATGAAATGCAAGCAAG | 0.185 |
| ATTACTGAAATGCAAGCAAG | 0.458 |
| CCTCCTGAAATGCAAGCAAG | 0.237 |
| TAGCCTGAAATGCAAGCAAG | 0.215 |
| ACCGCTGAAATGCAAGCAAG | 0.13 |
| GCCTTTGAAATGCAAGCAAG | 0.264 |
| TCCACTGAAATGCAAGCAAG | 0.475 |

| Sequence | AGO2 loading enrichment factor |
| --- | --- |
| CTTACTGAAATGCAAGCAAG | 0.0344 |
| AGGCCTGAAATGCAAGCAAG | 0.425 |
| GATCCTGAAATGCAAGCAAG | 0.627 |
| CGTGATGAAATGCAAGCAAG | 0.374 |
| CCCTGTGAAATGCAAGCAAG | 0.263 |
| AACCATGAAATGCAAGCAAG | 0.607 |
| GCATTTGAAATGCAAGCAAG | 0.0369 |
| TTGTTTGAAATGCAAGCAAG | 0.157 |
| CGGACTGAAATGCAAGCAAG | 0.761 |
| ATCTATGAAATGCAAGCAAG | 0.416 |
| GCTTTTGAAATGCAAGCAAG | 0.0717 |
| AAGGATGAAATGCAAGCAAG | 0.892 |
| ACCCCTGAAATGCAAGCAAG | 0.2 |
| TTCAATGAAATGCAAGCAAG | 0.461 |
| GGGGGTGAAATGCAAGCAAG | 12.9 |
| TGTGCTGAAATGCAAGCAAG | 0.288 |
| AGAACTGAAATGCAAGCAAG | 0.487 |
| GGCGATGAAATGCAAGCAAG | 0.753 |
| CTGCCTGAAATGCAAGCAAG | 1.05 |
| GATTGTGAAATGCAAGCAAG | 0.168 |
| GGTCATGAAATGCAAGCAAG | 0.75 |
| GCGCGTGAAATGCAAGCAAG | 0.0959 |
| CCACCTGAAATGCAAGCAAG | 0.223 |
| TCAAGTGAAATGCAAGCAAG | 0.455 |
| CATTGTGAAATGCAAGCAAG | 0.12 |
